# Data reported in PubChem BioAssay AID588591 (National Center for Advancing Translational Sciences (NCATS), 2011).
# Screen size: about 390,000 compounds; about 4,700 (1.2%) were called active. This list was built around the results that the source calls inconclusive (neither active nor inactive); the mix of calls is not that of the screen. Calls follow the shape of the dose curve; as a rule, active = well fitted inhibition curve with a large enough effect; inconclusive = small, poorly fitted or top-dose-only effect, or another doubt; inactive = no such curve, though single readings can be large or run the other way. Where the call is inconclusive, the potency comes from a doubtful curve fit.
# Molecular target: DNA polymerase eta (Homo sapiens) (UniProt Q9Y253)
# Chain of UniProt Q9Y253 (Q9Y253 whole entry, looked up): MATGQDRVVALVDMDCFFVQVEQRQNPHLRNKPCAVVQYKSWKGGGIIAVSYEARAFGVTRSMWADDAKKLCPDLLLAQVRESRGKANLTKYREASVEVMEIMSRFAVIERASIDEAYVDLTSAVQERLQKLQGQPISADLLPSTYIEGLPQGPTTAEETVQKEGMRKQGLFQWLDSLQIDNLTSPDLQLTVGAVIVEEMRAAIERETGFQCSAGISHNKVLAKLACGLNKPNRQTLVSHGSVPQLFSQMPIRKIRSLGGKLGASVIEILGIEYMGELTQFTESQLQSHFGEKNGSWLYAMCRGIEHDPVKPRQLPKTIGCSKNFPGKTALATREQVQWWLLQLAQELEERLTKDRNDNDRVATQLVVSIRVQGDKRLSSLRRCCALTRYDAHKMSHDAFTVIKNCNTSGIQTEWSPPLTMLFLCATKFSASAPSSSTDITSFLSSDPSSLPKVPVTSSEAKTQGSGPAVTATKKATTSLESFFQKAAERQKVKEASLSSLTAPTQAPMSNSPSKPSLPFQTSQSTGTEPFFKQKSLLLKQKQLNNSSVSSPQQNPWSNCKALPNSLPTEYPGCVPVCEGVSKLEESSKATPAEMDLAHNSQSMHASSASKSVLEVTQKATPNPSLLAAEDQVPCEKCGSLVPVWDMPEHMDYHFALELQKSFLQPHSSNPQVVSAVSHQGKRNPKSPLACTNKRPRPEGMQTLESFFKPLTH
# Experiment: qHTS for Inhibitors of Polymerase Eta
# Conditions: recombinant Pol eta, fluorescent DNA replication assay; series mostly up to 114 µM
# How it was run: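 Pol eta (10 nM) was preincubated with compounds for 15 min at room temperature, after which fluorescent replication substrate (50 nM final) was added to start the reaction. Fluorescence was read kinetically at 0 and 10 min.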
# Potency is read from the fitted curve at half-maximal effect; tags tell the direction and shape of the fitted curve.
row,Compound,Potency
1,Cc1oc2ccc(O)c(CN(C)Cc3ccccc3)c2c1C(=O)Nc1ccccc1,inactive
2,COc1ccc(-c2nn(-c3ccccc3)cc2/C=N/Nc2cccc(C(=O)O)c2)cc1,"inconclusive: 89.1 µM [inhibitor, single point]"
3,Cc1cc(Br)ccc1NC(=O)CN(C)Cc1cccs1,"inconclusive: 0.251 µM [inhibitor, partial curve, poor fit]"
4,CC(C)(Oc1ccc(Cl)cc1)C(=O)NCc1ccc(S(N)(=O)=O)cc1,"inconclusive: 56.2 µM [inhibitor, partial curve, poor fit]"
5,COc1ccc(C(CC(=O)N2CCOCC2)c2c(OC)cc(OC)c3c(-c4ccccc4)cc(=O)oc23)cc1 (stereo not given),active: 39.8 µM
6,Cc1cccc(-c2nc3c(c(SCC(=O)N4CCOCC4)n2)Cc2c(CO)cnc(C)c2O3)c1,"inconclusive: 56.2 µM [inhibitor, partial curve, poor fit]"
7,Cc1nc([N+](=O)[O-])c(Br)n1CC(=O)c1ccc2ccccc2c1,"inconclusive: 15.8 µM [inhibitor, partial curve, poor fit]"
8,CCOc1ccc(CCNc2ncnc3onc(-c4ccc(Cl)cc4)c23)cc1OCC,"inconclusive: 50.1 µM [inhibitor, partial curve, poor fit]"
9,Cc1ccc2nc(NC(=O)c3ccc(Br)o3)sc2c1,inactive
10,CCOc1cc(/C=C2\SC(=S)N(NC(=O)c3cccnc3)C2=O)ccc1O,"inconclusive: 31.6 µM [inhibitor, partial curve]"
11,COc1cccc(N2CCN(C(=O)c3cc4c(=O)oc5ccc(C)cc5c4s3)CC2)c1,"inconclusive: 89.1 µM [inhibitor, partial curve]"
12,COc1cccc(/C=N/Nc2ccnc(=O)[nH]2)c1O,inactive
13,CCOc1ccc(S(=O)(=O)NCCC(=O)OCC(=O)c2ccc(NC(C)=O)cc2)cc1,"inconclusive: 10 µM [inhibitor, partial curve, poor fit]"
14,CCOc1cc(/C=C(\C#N)C(=O)Nc2cccc(C(=O)O)c2)ccc1OCc1ccc(Br)cc1,"inconclusive: 11.2 µM [inhibitor, partial curve, poor fit]"
15,COc1ccc(C=NNc2ccc([N+](=O)[O-])cc2S(=O)(=O)Nc2ccccc2C(=O)O)cc1OC,active: 35.5 µM
16,COC(=O)CCCC1=CC2=CC(=O)C(C)(OC(=O)C3CCCC3)C(=O)C2=CO1 (stereo not given),active: 20 µM
17,COc1ccc(-c2n[nH]c(=S)n2/N=C/C=C/c2ccccc2OC)cc1,"inconclusive: 20 µM [inhibitor, single point]"
18,Cc1cccn2c(=O)c3cc(C(=O)NCC4CCCO4)c(=N)n(C4CCCC4)c3nc12 (stereo not given),"inconclusive: 79.4 µM [inhibitor, partial curve, poor fit]"
19,O=C(COC(=O)c1ccc(Br)o1)Nc1ncc(Cl)cc1Cl,"inconclusive: 50.1 µM [inhibitor, partial curve]"
20,O=C(O)Cc1cccc(=O)c(O)c1C(=O)O,active: 3.98 µM
21,COc1ccc(C(=O)CSc2nnc(NC(=O)C3CC(=O)N(c4ccccc4C)C3)s2)cc1 (stereo not given),"inconclusive: 14.1 µM [inhibitor, full curve]"
22,CCn1cc(C(=O)O)c(=O)c2cc(F)c(N/N=C/c3ccccc3)cc21,active: 2.51 µM

row,Compound,Potency
1,CCC(=O)Nc1ccc(C(=O)CSc2nnc(-c3cccnc3)o2)cc1,"inconclusive: 28.2 µM [inhibitor, partial curve, poor fit]"
2,O=C(Nc1cccc(Br)c1)c1ccc2nc(N3C(=O)CCC3=O)sc2c1,"inconclusive: 25.1 µM [inhibitor, partial curve, poor fit]"
3,COc1ccc(OC)c(/C(C)=N\NC(=O)c2cc3cc(Cl)ccc3n2C)c1,"inconclusive: 89.1 µM [inhibitor, partial curve, poor fit]"
4,CS(=O)(=O)c1ccc(C(=O)OCC(=O)Nc2cccnc2Cl)cc1[N+](=O)[O-],active: 89.1 µM
5,CC(=O)c1cccc(CN2CCCC(C(=O)Nc3ccc(-c4ccco4)cc3)C2)c1 (stereo not given),"inconclusive: 12.6 µM [inhibitor, full curve, poor fit]"
6,CCc1ccc(CCC(=O)Nc2ccc(C(=O)O)cc2)o1,"inconclusive: 56.2 µM [inhibitor, partial curve]"
7,COc1ccc(CCNC(=O)CSCc2ccc([N+](=O)[O-])cc2)cc1,"inconclusive: 100 µM [inhibitor, partial curve, poor fit]"
8,N#C/C(=N/Nc1ccc(OC(F)(F)F)cc1)C(N)=S,inactive
9,COc1ccc(Nc2c3ccccc3nc3ccccc23)cc1,inactive
10,Cc1nc(NS(=O)(=O)c2cccs2)c2c3c(sc2n1)CCC3,"inconclusive: 25.1 µM [inhibitor, partial curve, poor fit]"
11,Cc1ccc(NCC(=O)Nc2cccc(S(=O)(=O)N(C)C)c2)cc1S(=O)(=O)N1CCCCCC1,"inconclusive: 5.62 µM [inhibitor, partial curve, poor fit]"
12,Cc1nc2ccccn2c1C(=O)N/N=C/c1ccc([N+](=O)[O-])o1,active: 7.94 µM
13,Cc1ccc(C(=O)c2cn(CC(=O)NCc3ccccc3Cl)c3nc(C)ccc3c2=O)cc1,inactive
14,COc1ccccc1C(C)NCC(=O)NC(=O)NCc1ccco1 (stereo not given),"inconclusive: 17.8 µM [inhibitor, full curve, poor fit]"
15,CCOC(=O)c1c(C)[nH]c(C)c1S(=O)(=O)N1CCCC(C(=O)NCc2cccc(OC)c2)C1 (stereo not given),inactive
16,CCCCN(CC(O)COc1cccc(C)c1)CC(O)COc1cccc(C)c1 (stereo not given),"inconclusive: 31.6 µM [inhibitor, partial curve, poor fit]"
17,COc1ccc2[nH]c3c(C)c4ccncc4c(C)c3c2c1,"inconclusive: 50.1 µM [inhibitor, partial curve, poor fit]"
18,O=C1C=C(Nc2ccc(Cl)cc2)CC(c2ccco2)C1 (stereo not given),"inconclusive: 31.6 µM [inhibitor, partial curve, poor fit]"
19,Cc1c(Cl)cnc(NC(=O)COC(=O)c2ccc([N+](=O)[O-])s2)c1Cl,active: 17.8 µM
20,COc1ccccc1C(=O)NNC(=O)c1ccncc1,"inconclusive: 100 µM [inhibitor, single point]"
21,N#Cc1c(/N=C/c2ccc(-c3ccccc3C(=O)O)o2)sc2c1CCCC2,active: 28.2 µM
22,Cc1cccc(C)c1OCCCn1c(CCNC(=O)C2CCCCC2)nc2ccccc21,inactive

row,Compound,Potency
1,O=C(O)CN1C(=O)/C(=C\c2cc(Br)ccc2OCc2ccccc2Cl)SC1=S,active: 39.8 µM
2,NC1=C(Cl)C(=O)c2ccc(S(N)(=O)=O)cc2C1=O,active: 10 µM
3,Cn1cc(C(=O)N/N=C/C2=C(N3CCOCC3)C(=C/c3ccc([N+](=O)[O-])cc3)/CC2)ccc1=O,"inconclusive: 89.1 µM [inhibitor, single point]"
4,CCOc1ccc(N(CC)S(=O)(=O)N2CCCC(C(=O)Nc3ccc(C(C)=O)cc3)C2)cc1 (stereo not given),inactive
5,COc1ccc(C(=O)CCC(=O)Nc2cc(Cl)c(O)c(Cl)c2)cc1,active: 22.4 µM
6,CCCc1nc2sc3ccccc3c(=O)c2c(=O)n1Cc1ccco1,"inconclusive: 12.6 µM [inhibitor, partial curve, poor fit]"
7,C=CCn1c(SCc2nc3sc(C(=O)O)c(C)c3c(=O)[nH]2)nnc1-c1ccc(F)cc1,"inconclusive: 31.6 µM [inhibitor, partial curve]"
8,CCCCC1(C)OC(=O)C(=Cc2ccc(N(C)C)cc2)C(=O)O1 (stereo not given),"inconclusive: 31.6 µM [inhibitor, partial curve, poor fit]"
9,COc1ccc(/C=C/C(=O)NC(=S)Nc2ccc(C(=O)O)cc2)cc1,"inconclusive: 31.6 µM [inhibitor, partial curve, poor fit]"
10,O=C(/C=C/c1ccccc1)c1ccccc1,"inconclusive: 89.1 µM [inhibitor, single point]"
11,O=C1/C(=C/c2ccc(O)c([N+](=O)[O-])c2)SC(=S)N1Cc1ccccc1,"inconclusive: 50.1 µM [inhibitor, partial curve]"
12,COc1ccc(OC(=O)c2cn(C)nc2C(F)(F)F)cc1,"inconclusive: 89.1 µM [inhibitor, partial curve, poor fit]"
13,O=C(O)c1c(C(=O)O)c(-c2ccc(Cl)c(Cl)c2)n2c1CSC2,active: 50.1 µM
14,CCOc1cccc(CNCc2cccnc2)c1OCc1ccccc1,"inconclusive: 89.1 µM [inhibitor, partial curve, poor fit]"
15,CCOC(=O)c1cc2[nH]c3ccccc3c2[n+](-c2ccc([N+](=O)[O-])cc2)c1N,"inconclusive: 15.8 µM [inhibitor, partial curve, poor fit]"
16,CC(=O)Nc1ccc(-n2cc(-c3ccccc3)[nH]c2=S)cc1,inactive
17,COc1cccc(NC(=O)CN(C)C(C)C(=O)Nc2ccc(S(=O)(=O)N3CCCC3)cc2)c1 (stereo not given),"inconclusive: 79.4 µM [inhibitor, partial curve, poor fit]"
18,Fc1ccccc1Cc1cn2cc(-c3ccc(Cl)cc3)nc2s1,inactive
19,Cc1ccccc1NC(=O)Cc1nc(COC(=O)C(C)(C)Oc2ccc(Cl)cc2)cs1,"inconclusive: 79.4 µM [inhibitor, partial curve, poor fit]"
20,NC(=O)c1ccc(Oc2ccc3ccc(=O)oc3c2)c([N+](=O)[O-])c1,active: 28.2 µM
21,O=C(O)c1cc(S(=O)(=O)N2CC=C(c3ccccc3)CC2)ccc1O,"inconclusive: 89.1 µM [inhibitor, partial curve, poor fit]"
